This note sets out measurements from the supplement of paper PMC10498489.

Each structure is given as a SMILES string. The campaign covered roughly 2,300 compounds. About 330 (14%) showed activity.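 How the source made its calls: active = median modified Z-score above 1.96; inactive = 1.96 or below.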 The entries are a selection whose mix differs from that of the whole data set.

The test system of the experiment is HepG2 Srxn1-GFP reporter cells (+30 nM CDDO-Me). Briefly: Srxn1-GFP intensity median modified Z-score relative to plate median; higher = stronger NRF2 / oxidative stress reporter activation, active = hit call of the paper. As to conditions: 10 µM; exposure time: 24h. The method, boiled down: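 The modified Z-score of GFP intensity was computed per plate, and the median over replicates is reported. HepG2 Srxn1-GFP BAC reporter cells in three replicate plates were treated for 24 h with compound at 10 μM plus an NRF2 activator at 30 nM (≤0.1% DMSO). Per-cell cytoplasmic GFP came from confocal images, excluding those with under 100 cells, and scaling used 1.4826 × median absolute deviation.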
As to `O=C1CC(c2ccccc2)Oc2ccccc21` (configuration not stated) [euspeclibcmpd1376], the “Srxn1-GFP intensity median modified Z-score” value was active: 3.07. The result for `C[C@](N)(Cc1ccc(O)cc1)C(=O)O` [euspeclibcmpd2271] reads inactive: -0.309; that for `Cc1cccc(C)c1NC(=O)c1ccccc1C(=O)O` [euspeclibcmpd1175], inactive: 0.107; that for `C=C(CC)C(=O)c1ccc(OCC(=O)O)c(Cl)c1Cl` [euspeclibcmpd119], active: 14. The result for `Nc1ccc(S(=O)(=O)NC(=O)c2ccccc2)cc1` [euspeclibcmpd272] reads inactive: -0.565; that for `CNC[C@H](O)c1cccc(O)c1` [euspeclibcmpd236], inactive: -0.199. The result for `CCN(CC)CCNC(=O)c1ccc(NC(C)=O)cc1` [euspeclibcmpd945] reads inactive: -0.548; that for `CN1C(=O)CC(C)(c2ccccc2)C1=O` (configuration not stated) [euspeclibcmpd788], inactive: -0.824. Consider `O=C1C=CC(=C(c2ccc(O)cc2)c2ccc(O)cc2)C=C1` [euspeclibcmpd1770], for which the “Srxn1-GFP intensity median modified Z-score” value is active: 19.5. As for `Cc1cn(C2CC(N=[N+]=[N-])C(CO)O2)c(=O)[nH]c1=O` (configuration not stated) [euspeclibcmpd435], the figure is inactive: 0.989. The result for `O=c1c(-c2ccc(O)cc2)coc2cc(O)cc(O)c12` [euspeclibcmpd1252] reads active: 7.05; that for `COC(=O)[C@H]1[C@H]2C[C@@H]3c4[nH]c5cc(OC)ccc5c4CCN3C[C@H]2C[C@@H](OC(=O)c2cc(OC)c(OC)c(OC)c2)[C@@H]1OC` [euspeclibcmpd2385], active: 6.53; that for `O=C(O)P(=O)(O)O` [euspeclibcmpd2361], inactive: -0.115. As for `CCCCCCCCCCCCCCCC[N+](C)(C)CCN(Cc1ccc(OC)cc1)c1ncccn1` [euspeclibcmpd626], the figure is inactive: 1.67; as for `CC(C)NCC(O)c1ccc(NS(C)(=O)=O)cc1` (configuration not stated) [euspeclibcmpd910], inactive: -0.269; as for `CCOc1ccccc1C(N)=O` [euspeclibcmpd2373], inactive: -0.455. Regarding `COc1ccc2c(c1)CCC1C2CC[C@@]2(C)C1CC[C@@H]2O` (some centres not stated) [euspeclibcmpd2297], the “Srxn1-GFP intensity median modified Z-score” value was active: 4.5. Regarding `CO[C@@]1(NC(=O)C(C(=O)O)c2ccc(O)cc2)C(=O)N2C(C(=O)O)=C(CSc3nnnn3C)CO[C@@H]21` (some centres not stated) [euspeclibcmpd2139], the “Srxn1-GFP intensity median modified Z-score” value was inactive: 0.635.

For `CC(=O)C(O)Nc1c(I)c(C(=O)NC(CO)CO)c(I)c(C(=O)NC(CO)CO)c1I` (configuration not stated) [euspeclibcmpd459], the “Srxn1-GFP intensity median modified Z-score” value is inactive: -0.445. Turning to `COc1ccc2c(c1)O[C@@H]1COc3cc(OC)c(OC)cc3C1C2=O` (some centres not stated) [euspeclibcmpd1700], the “Srxn1-GFP intensity median modified Z-score” value was active: 22.8.

For `CN(C)CCCN1c2ccccc2CCc2ccc(Cl)cc21` [euspeclibcmpd941], the “Srxn1-GFP intensity median modified Z-score” value is inactive: 0.721. As for `CO[C@@H]1[C@@H](O[C@@H]2O[C@H](C)[C@@H](O[C@H]3C[C@@](C)(O)[C@H](O)[C@H](C)O3)[C@H](N(C)C)[C@H]2O)[C@@H](CC=O)C[C@@H](C)[C@@H](O[C@H]2CC[C@H](N(C)C)[C@@H](C)O2)/C=C/C=C/C[C@H](C)OC(=O)C[C@H]1O` [euspeclibcmpd581], the figure is inactive: 0.0936; as for `Cc1cc(C(C)(C)CC(C)(C)C)ccc1OCCOCC[N+](C)(C)Cc1ccccc1` [euspeclibcmpd556], active: 24; as for `Nc1ccc(O)c(C(=O)O)c1` [euspeclibcmpd903], inactive: 0.0529.

Consider `CC(C)(C)OC(=O)N1[C@H](CNCC(=O)NCC2CC2)COC1(C)C`, for which the “Srxn1-GFP intensity median modified Z-score” value is inactive: 0.298. As for `Cc1cc(OC(=O)c2c(C)cc(O)cc2O)cc(O)c1C(=O)O` [euspeclibcmpd1418], the figure is inactive: -0.335; as for `Clc1ccccc1CN1CCc2sccc2C1` [euspeclibcmpd838], inactive: 0.704. The result for `CS(=O)(=O)c1ccc([C@@H](O)[C@@H](CO)NC(=O)C(Cl)Cl)cc1` [euspeclibcmpd535] reads inactive: 0.0848.

For the compound `CCOc1cc(NC(C)=O)ccc1C(=O)OC` [euspeclibcmpd2103], the “Srxn1-GFP intensity median modified Z-score” value was inactive: 0.255. The result for `O=c1[nH]cc(F)c(=O)[nH]1` [euspeclibcmpd825] reads inactive: -0.602; that for `O=C(O)c1cc(=O)c2cccc(O)c2[nH]1` [euspeclibcmpd1429], inactive: -0.455; that for `COc1ccc2c(c1)C(=O)/C(=C\c1ccc(OC)c(O)c1)CO2`, active: 3.46.

For the compound `CC(C)[C@@H]1CC[C@@H](C)C[C@H]1O` [euspeclibcmpd1123], the “Srxn1-GFP intensity median modified Z-score” value is inactive: 0.0319. In the case of `CCC(c1ccc(O)cc1)C(CC)c1ccc(O)cc1` (configuration not stated) [euspeclibcmpd1035], the “Srxn1-GFP intensity median modified Z-score” value is inactive: 1.59.

Consider `Oc1ccc(C=Cc2cc(O)cc(O)c2)cc1` [euspeclibcmpd1411], for which the “Srxn1-GFP intensity median modified Z-score” value was active: 12.1.

For `CC(C)c1ccc2c(c1)CCC1C(C)(C(N)=O)CCCC21C` (configuration not stated) [euspeclibcmpd1367], the “Srxn1-GFP intensity median modified Z-score” value was active: 15.1. The result for `CC(=O)OC/C=C(C)/C=C/C=C(C)/C=C/C1=C(C)CCCC1(C)C` [euspeclibcmpd1114] reads inactive: 0.44; that for `O=C(C=Cc1ccc(O)c(O)c1)OC(Cc1ccc(O)c(O)c1)C(=O)O` (configuration not stated) [euspeclibcmpd2083], inactive: -0.529. On to `C=C[C@H]1C[N@]2CC[C@H]1C[C@@H]2[C@@H](O)c1ccnc2ccc(OC)cc12` [euspeclibcmpd2428], for which the “Srxn1-GFP intensity median modified Z-score” value was active: 1.98. The result for `Cn1cc(O)[nH]c1=N` [euspeclibcmpd1004] reads inactive: -0.153; that for `Cc1cc2nc3ccc(N(C)C)cc3[s+]c2cc1N` [euspeclibcmpd1030], active: 9. Consider `CC1CCC(NC(=O)N(CCCl)N=O)CC1` (configuration not stated) [euspeclibcmpd125], for which the “Srxn1-GFP intensity median modified Z-score” value is inactive: 0.125. As for `CC(c1cc2ccccc2s1)N(O)C(N)=O` (configuration not stated) [euspeclibcmpd884], the figure is inactive: -0.107; as for `CC(=O)Oc1cc(C(C)C)c(OCCN(C)C)cc1C` [euspeclibcmpd1193], inactive: 0.256; as for `CNNCc1ccc(C(=O)NC(C)C)cc1` [euspeclibcmpd1291], inactive: 0.00884.

Turning to `Nc1ccc(C(=O)Oc2ccccc2)c(O)c1` [euspeclibcmpd9], the “Srxn1-GFP intensity median modified Z-score” value was inactive: 0.24. In the case of `CN(C)CCC=C1c2ccccc2C=Cc2ccccc21` [euspeclibcmpd540], the “Srxn1-GFP intensity median modified Z-score” value was inactive: 1.55. Consider `CN(C)CCc1c[nH]c2ccc(C[C@H]3COC(=O)N3)cc12` [euspeclibcmpd980], for which the “Srxn1-GFP intensity median modified Z-score” value is inactive: 0.441. In the case of `NS(=O)(=O)c1cc2c(cc1Cl)NCNS2(=O)=O` [euspeclibcmpd150], the “Srxn1-GFP intensity median modified Z-score” value is inactive: -0.544. As for `Cn1c(SC2CCCCC2=O)nnc1-c1cccc(Br)c1` (configuration not stated), the figure is active: 4.66; as for `CS(=O)(=O)Nc1ccc([N+](=O)[O-])cc1Oc1ccccc1` [euspeclibcmpd1133], inactive: -0.221. As to `CCn1cc(C(=O)O)c(=O)c2cc(F)c(N3CCNC(C)C3)c(F)c21` (configuration not stated) [euspeclibcmpd475], the “Srxn1-GFP intensity median modified Z-score” value is inactive: -0.902. In the case of `CN1CCc2cccc3c2C1Cc1ccc(O)c(O)c1-3` (configuration not stated) [euspeclibcmpd27], the “Srxn1-GFP intensity median modified Z-score” value is inactive: -0.33. On to `CCCCC(=O)Oc1ccccc1C(=O)O` [euspeclibcmpd1887], for which the “Srxn1-GFP intensity median modified Z-score” value was active: 14.5. In the case of `CCn1cc(C(=O)O)c(=O)c2cc(F)c(N3CCN(C)CC3)cc21` [euspeclibcmpd844], the “Srxn1-GFP intensity median modified Z-score” value was inactive: 0.0989. As for `Cc1ccc(S(=O)(=O)NCl)cc1` [euspeclibcmpd2189], the figure is inactive: -0.255; as for `O=C(N/N=C/c1ccc([N+](=O)[O-])o1)c1ccc(O)cc1` [euspeclibcmpd1226], inactive: 0.949. As for `Cc1ccc(C(C)C)cc2c(C)ccc1-2` [euspeclibcmpd1463], the “Srxn1-GFP intensity median modified Z-score” value was inactive: -0.455. As for `CCOc1ccc2ccccc2c1C(=O)NC1C(=O)N2C1SC(C)(C)C2C(=O)O` (configuration not stated) [euspeclibcmpd2391], the figure is inactive: -0.175. With `CN1CCN(C(c2ccccc2)c2ccc(Cl)cc2)CC1` (configuration not stated) [euspeclibcmpd2027], the “Srxn1-GFP intensity median modified Z-score” value is inactive: -0.00147. The result for `CCc1cc(C(N)=S)ccn1` [euspeclibcmpd122] reads inactive: -0.433; that for `CC(=O)Nc1ccc(S(=O)(=O)Nc2ccc([N+](=O)[O-])cc2)cc1` [euspeclibcmpd574], inactive: -0.693.

As for `Cc1ccc(C(=O)Nc2ccc(S(=O)(=O)O)c3cc(S(=O)(=O)O)cc(S(=O)(=O)O)c23)cc1NC(=O)c1cccc(NC(=O)Nc2cccc(C(=O)Nc3cc(C(=O)Nc4ccc(S(=O)(=O)O)c5cc(S(=O)(=O)O)cc(S(=O)(=O)O)c45)ccc3C)c2)c1` [euspeclibcmpd2231], the “Srxn1-GFP intensity median modified Z-score” value was inactive: -0.305. `CC[C@]1(O)CC2CN(CCc3c([nH]c4ccccc34)[C@@](C(=O)OC)(c3cc4c(cc3OC)N(C=O)[C@H]3[C@@](O)(C(=O)OC)[C@H](OC(C)=O)[C@]5(CC)C=CCN6CC[C@]43[C@@H]65)C2)C1` (some centres not stated) [euspeclibcmpd836]: the “Srxn1-GFP intensity median modified Z-score” value is active: 27.5. Consider `CNCCC=C1c2ccccc2CCc2ccccc21` [euspeclibcmpd2305], for which the “Srxn1-GFP intensity median modified Z-score” value was inactive: -0.346.

As for `OC[C@H]1O[C@@H](OCCc2ccc(O)cc2)[C@H](O)[C@@H](O)[C@@H]1O` [euspeclibcmpd1781], the “Srxn1-GFP intensity median modified Z-score” value is inactive: -0.392. The result for `Cc1ccc(/C(=C\CN2CCCC2)c2ccccn2)cc1` [euspeclibcmpd313] reads inactive: -0.66; that for `CCCCCC(=O)O[C@]1(C(C)=O)CCC2C3CC=C4CC(=O)CC[C@]4(C)C3CC[C@@]21C` (some centres not stated) [euspeclibcmpd155], active: 13.5. On to `COc1ccc(C(=O)CC(=O)c2ccc(C(C)(C)C)cc2)cc1` [euspeclibcmpd663], for which the “Srxn1-GFP intensity median modified Z-score” value is inactive: 0.831. The result for `CCOC(=O)C1=C(COCCN)N=C(C)C(C(=O)OC)C1c1ccccc1Cl` (configuration not stated) [euspeclibcmpd713] reads active: 22.6. As for `COc1ccc(C(=O)c2ccccc2)c(O)c1` [euspeclibcmpd221], the figure is inactive: 0.426; as for `COc1c(N2C[C@@H]3CCCN[C@@H]3C2)c(F)cc2c(=O)c(C(=O)O)cn(C3CC3)c12` [euspeclibcmpd682], inactive: -0.575.
